# Test results as given in the supplement of paper PMC8728848.
# The list shows a part of the results.
# B1: rCNL (Clitocybe nebularis), B2ZRS9 (protein)
# chain: SITPGTYNITNVAYTNRLIDLTGSNPAENTLIIGHHLNKTPSGYGNQQWTLVQLPHTTIYTMQAVNPQSYVRVRDDNLVDGAALVGSQQPTPVSIESAGNSGQFRIKIPNLGLALTLPSDANSTPIVLGEVDETSTNQLWAFESVSAV
# How the values were obtained:
# Test in all cases: glycan array binding signal (z-score within array); higher = stronger binding
# Conditions in all cases: glycan notation: IUPAC condensed, linker removed
# [1] = biological target: Gal(b1-4)GlcNAc(b1-2)[Gal(b1-4)GlcNAc(b1-4)]Man(a1-3)[GlcNAc(b1-4)][Gal(b1-4)GlcNAc(b1-2)[Gal(b1-4)GlcNAc(b1-6)]Man(a1-6)]Man(b1-4)GlcNAc(b1-4)GlcNAc
# Method in brief: (§1)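 The binding signal is a Z-score computed within each array. Data were drawn from 3228 arrays in the Consortium for Functional Glycomics database, restricted to those with a known protein sequence. Scores were averaged over arrays of the same protein sequence at different concentrations or buffers, and over linkers, and negative values can be taken as non-binding.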
# [2] = biological target: Gal(b1-4)GlcNAc(b1-2)[Gal(b1-4)GlcNAc(b1-6)]Man(a1-6)[Gal(b1-4)GlcNAc(b1-2)Man(a1-3)]Man(b1-4)GlcNAc(b1-4)GlcNAc
# Method in brief: as §1
# [3] = biological target: Gal(b1-4)GlcNAc(b1-2)[Gal(b1-4)GlcNAc(b1-6)]Man(a1-6)[Gal(b1-4)GlcNAc(b1-2)Man(a1-3)]Man(b1-4)GlcNAc(b1-4)[Fuc(a1-6)]GlcNAc
# Method in brief: as §1
# [4] = biological target: Gal(b1-4)GlcNAc(b1-2)[Gal(b1-4)GlcNAc(b1-6)]Man(a1-6)[GlcNAc(b1-4)][Gal(b1-4)GlcNAc(b1-2)Man(a1-3)]Man(b1-4)GlcNAc(b1-4)GlcNAc
# Method in brief: as §1
# [5] = biological target: Gal(b1-4)GlcNAc(b1-2)[Gal(b1-4)GlcNAc(b1-6)]Man(a1-6)[GlcNAc(b1-4)][Gal(b1-4)GlcNAc(b1-2)[Gal(b1-4)GlcNAc(b1-4)]Man(a1-3)]Man(b1-4)GlcNAc(b1-4)[Fuc(a1-6)]GlcNAc
# Method in brief: as §1
# [6] = biological target: Gal(b1-4)GlcNAc(b1-3)Gal(b1-3)GalNAc
# Method in brief: as §1
# [7] = biological target: Gal(b1-4)GlcNAc(b1-3)Gal(b1-3)GlcNAc
# Method in brief: as §1
# [8] = biological target: Gal(b1-4)GlcNAc(b1-3)Gal(b1-4)Glc
# Method in brief: as §1
# [9] = biological target: Gal(b1-4)GlcNAc(b1-3)Gal(b1-4)GlcNAc
# Method in brief: as §1
# [10] = biological target: Gal(b1-4)GlcNAc(b1-3)Gal(b1-4)GlcNAc(b1-2)Man(a1-3)[Gal(b1-4)GlcNAc(b1-3)Gal(b1-4)GlcNAc(b1-2)Man(a1-6)]Man(b1-4)GlcNAc(b1-4)GlcNAc
# Method in brief: as §1
# [11] = biological target: Gal(b1-4)GlcNAc(b1-3)Gal(b1-4)GlcNAc(b1-2)Man(a1-3)[Gal(b1-4)GlcNAc(b1-3)Gal(b1-4)GlcNAc(b1-2)Man(a1-6)]Man(b1-4)GlcNAc(b1-4)[Fuc(a1-6)]GlcNAc
# Method in brief: as §1
# [12] = biological target: Gal(b1-4)GlcNAc(b1-3)Gal(b1-4)GlcNAc(b1-2)[Gal(b1-4)GlcNAc(b1-3)Gal(b1-4)GlcNAc(b1-6)]Man(a1-6)[Gal(b1-4)GlcNAc(b1-3)Gal(b1-4)GlcNAc(b1-2)Man(a1-3)]Man(b1-4)GlcNAc(b1-4)GlcNAc
# Method in brief: as §1
# [13] = biological target: Gal(b1-4)GlcNAc(b1-3)Gal(b1-4)GlcNAc(b1-2)[Gal(b1-4)GlcNAc(b1-3)Gal(b1-4)GlcNAc(b1-6)]Man(a1-6)[Gal(b1-4)GlcNAc(b1-3)Gal(b1-4)GlcNAc(b1-2)Man(a1-3)]Man(b1-4)GlcNAc(b1-4)[Fuc(a1-6)]GlcNAc
# Method in brief: as §1
# [14] = biological target: Gal(b1-4)GlcNAc(b1-3)Gal(b1-4)GlcNAc(b1-3)Gal(b1-4)GlcNAc
# Method in brief: as §1
# [15] = biological target: Gal(b1-4)GlcNAc(b1-3)Gal(b1-4)GlcNAc(b1-3)Gal(b1-4)GlcNAc(b1-2)Man(a1-3)[Gal(b1-4)GlcNAc(b1-3)Gal(b1-4)GlcNAc(b1-3)Gal(b1-4)GlcNAc(b1-2)Man(a1-6)]Man(b1-4)GlcNAc(b1-4)GlcNAc
# Method in brief: as §1
# [16] = biological target: Gal(b1-4)GlcNAc(b1-3)Gal(b1-4)GlcNAc(b1-3)Gal(b1-4)GlcNAc(b1-2)Man(a1-3)[Gal(b1-4)GlcNAc(b1-3)Gal(b1-4)GlcNAc(b1-3)Gal(b1-4)GlcNAc(b1-2)Man(a1-6)]Man(b1-4)GlcNAc(b1-4)[Fuc(a1-6)]GlcNAc
# Method in brief: as §1
# [17] = biological target: Gal(b1-4)GlcNAc(b1-3)Gal(b1-4)GlcNAc(b1-3)Gal(b1-4)GlcNAc(b1-2)[Gal(b1-4)GlcNAc(b1-3)Gal(b1-4)GlcNAc(b1-3)Gal(b1-4)GlcNAc(b1-6)]Man(a1-6)[Gal(b1-4)GlcNAc(b1-3)Gal(b1-4)GlcNAc(b1-3)Gal(b1-4)GlcNAc(b1-2)Man(a1-3)]Man(b1-4)GlcNAc(b1-4)[Fuc(a1-6)]GlcNAc
# Method in brief: as §1
# [18] = biological target: Gal(b1-4)GlcNAc(b1-3)Gal(b1-4)GlcNAc(b1-3)Gal(b1-4)GlcNAc(b1-3)Gal(b1-4)GlcNAc(b1-2)Man(a1-3)[Gal(b1-4)GlcNAc(b1-3)Gal(b1-4)GlcNAc(b1-3)Gal(b1-4)GlcNAc(b1-3)Gal(b1-4)GlcNAc(b1-2)Man(a1-6)]Man(b1-4)GlcNAc(b1-4)GlcNAc
# Method in brief: as §1
# [19] = biological target: Gal(b1-4)GlcNAc(b1-3)Gal(b1-4)GlcNAc(b1-3)Gal(b1-4)GlcNAc(b1-3)Gal(b1-4)GlcNAc(b1-2)Man(a1-3)[Gal(b1-4)GlcNAc(b1-3)Gal(b1-4)GlcNAc(b1-3)Gal(b1-4)GlcNAc(b1-3)Gal(b1-4)GlcNAc(b1-2)Man(a1-6)]Man(b1-4)GlcNAc(b1-4)[Fuc(a1-6)]GlcNAc
# Method in brief: as §1
# [20] = biological target: Gal(b1-4)GlcNAc(b1-3)Gal(b1-4)GlcNAc(b1-3)Gal(b1-4)GlcNAc(b1-3)Gal(b1-4)GlcNAc(b1-2)[Gal(b1-4)GlcNAc(b1-3)Gal(b1-4)GlcNAc(b1-3)Gal(b1-4)GlcNAc(b1-3)Gal(b1-4)GlcNAc(b1-6)]Man(a1-6)[Gal(b1-4)GlcNAc(b1-3)Gal(b1-4)GlcNAc(b1-3)Gal(b1-4)GlcNAc(b1-3)Gal(b1-4)GlcNAc(b1-2)Man(a1-3)]Man(b1-4)GlcNAc(b1-4)[Fuc(a1-6)]GlcNAc
# Method in brief: as §1
# [21] = biological target: Gal(b1-4)GlcNAc(b1-3)Gal(b1-4)GlcNAc(b1-3)Gal(b1-4)GlcNAc(b1-3)Gal(b1-4)GlcNAc(b1-3)Gal(b1-4)GlcNAc(b1-2)Man(a1-3)[Gal(b1-4)GlcNAc(b1-3)Gal(b1-4)GlcNAc(b1-3)Gal(b1-4)GlcNAc(b1-3)Gal(b1-4)GlcNAc(b1-3)Gal(b1-4)GlcNAc(b1-2)Man(a1-6)]Man(b1-4)GlcNAc(b1-4)GlcNAc
# Method in brief: as §1
# [22] = biological target: Gal(b1-4)GlcNAc(b1-3)Gal(b1-4)GlcNAc(b1-3)Gal(b1-4)GlcNAc(b1-3)Gal(b1-4)GlcNAc(b1-3)Gal(b1-4)GlcNAc(b1-2)Man(a1-3)[Gal(b1-4)GlcNAc(b1-3)Gal(b1-4)GlcNAc(b1-3)Gal(b1-4)GlcNAc(b1-3)Gal(b1-4)GlcNAc(b1-3)Gal(b1-4)GlcNAc(b1-2)Man(a1-6)]Man(b1-4)GlcNAc(b1-4)[Fuc(a1-6)]GlcNAc
# Method in brief: as §1
binder,measurement,setting,value
B1,glycan array binding signal (z-score),[1],-0.041
same,glycan array binding signal (z-score),[2],-0.148
same,glycan array binding signal (z-score),[3],-0.2
same,glycan array binding signal (z-score),[4],-0.157
same,glycan array binding signal (z-score),[5],-0.112
same,glycan array binding signal (z-score),[6],-0.207
same,glycan array binding signal (z-score),[7],-0.117
same,glycan array binding signal (z-score),[8],-0.059
same,glycan array binding signal (z-score),[9],0.049
same,glycan array binding signal (z-score),[10],0.025
same,glycan array binding signal (z-score),[11],-0.195
same,glycan array binding signal (z-score),[12],-0.209
same,glycan array binding signal (z-score),[13],-0.147
same,glycan array binding signal (z-score),[14],0.047
same,glycan array binding signal (z-score),[15],-0.018
same,glycan array binding signal (z-score),[16],-0.198
same,glycan array binding signal (z-score),[17],-0.161
same,glycan array binding signal (z-score),[18],-0.184
same,glycan array binding signal (z-score),[19],-0.186
same,glycan array binding signal (z-score),[20],-0.171
same,glycan array binding signal (z-score),[21],-0.198
same,glycan array binding signal (z-score),[22],-0.164
